Publication PMC3342958, “IDN2 and Its Paralogs Form a Complex Required for RNA–Directed DNA Methylation”
Where a chain is given by its changes, count along the chain named. Results are given in words; binding and its absence hold for the method and conditions named. For some of these results: Binding seen in cells or lysates may run through a third protein. Where a sequence is shown, tags or fusion partners need not be part of it. Some entries that bind do so weakly or less than the wild type. Each block holds one molecule with its values, some of them ahead of it.

The chains behind the UniProt entries cited, without tags or fusion partners.
UniProt Q94A79: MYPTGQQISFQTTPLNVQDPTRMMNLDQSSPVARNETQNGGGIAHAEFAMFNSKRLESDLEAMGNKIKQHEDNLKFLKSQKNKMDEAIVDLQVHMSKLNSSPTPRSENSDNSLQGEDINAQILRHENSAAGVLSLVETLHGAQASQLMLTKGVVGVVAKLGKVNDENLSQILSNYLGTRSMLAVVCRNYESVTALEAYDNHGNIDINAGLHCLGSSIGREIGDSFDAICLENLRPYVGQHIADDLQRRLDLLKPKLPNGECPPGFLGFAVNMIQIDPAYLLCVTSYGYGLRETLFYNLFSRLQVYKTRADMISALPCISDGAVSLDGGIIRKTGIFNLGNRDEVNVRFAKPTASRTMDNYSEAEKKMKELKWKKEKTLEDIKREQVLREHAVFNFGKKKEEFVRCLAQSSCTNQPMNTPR

Columns and labels:
[1] = molecular target: T1, IDN2-6xMyc (Arabidopsis thaliana) (UniProt Q8VZ79); experiment: co-IP; affinity purification with the Myc antibody from extracts of IDN2-6xMyc transgenic plants in ros1idn2-4; co-purified proteins tested by western blotting with the endogenous DMS3 antibody
T1 sequence: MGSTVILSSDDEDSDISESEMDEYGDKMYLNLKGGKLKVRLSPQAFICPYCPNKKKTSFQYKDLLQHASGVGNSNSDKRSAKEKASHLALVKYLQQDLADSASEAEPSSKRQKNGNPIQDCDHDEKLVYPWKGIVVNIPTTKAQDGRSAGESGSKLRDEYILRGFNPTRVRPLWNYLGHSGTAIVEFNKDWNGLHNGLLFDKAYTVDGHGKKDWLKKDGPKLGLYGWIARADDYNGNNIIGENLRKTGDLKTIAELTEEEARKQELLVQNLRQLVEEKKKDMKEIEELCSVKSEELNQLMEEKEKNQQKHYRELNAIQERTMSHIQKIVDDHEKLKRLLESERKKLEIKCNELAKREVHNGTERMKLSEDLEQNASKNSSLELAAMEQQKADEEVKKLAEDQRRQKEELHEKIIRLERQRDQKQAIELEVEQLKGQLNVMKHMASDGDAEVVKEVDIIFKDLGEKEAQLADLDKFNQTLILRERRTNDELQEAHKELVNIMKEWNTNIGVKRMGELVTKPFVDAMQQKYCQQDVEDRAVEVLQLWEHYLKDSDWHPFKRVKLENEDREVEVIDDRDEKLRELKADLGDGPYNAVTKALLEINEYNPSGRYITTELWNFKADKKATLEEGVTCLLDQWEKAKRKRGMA

[2] = molecular target: T2, IDN2, yeast two-hybrid fusion (Arabidopsis thaliana) (UniProt Q8VZ79); experiment: two-hybrid; pGADT7 and pGBKT7 constructs co-transformed into yeast strain PJ694a; spot assay on SD-trp-leu-his with 5 mM to 20 mM 3-AT; HIS reporter
T2 sequence: T1 sequence

[3] = molecular target: T3, IDN2W616A, yeast two-hybrid bait (Arabidopsis thaliana) (UniProt Q8VZ79); experiment: as above
T3 sequence: T1 sequence with W616A

[4] = molecular target: T4, IDP1, yeast two-hybrid fusion (Arabidopsis thaliana) (UniProt Q9S9P3); experiment: as above
T4 sequence: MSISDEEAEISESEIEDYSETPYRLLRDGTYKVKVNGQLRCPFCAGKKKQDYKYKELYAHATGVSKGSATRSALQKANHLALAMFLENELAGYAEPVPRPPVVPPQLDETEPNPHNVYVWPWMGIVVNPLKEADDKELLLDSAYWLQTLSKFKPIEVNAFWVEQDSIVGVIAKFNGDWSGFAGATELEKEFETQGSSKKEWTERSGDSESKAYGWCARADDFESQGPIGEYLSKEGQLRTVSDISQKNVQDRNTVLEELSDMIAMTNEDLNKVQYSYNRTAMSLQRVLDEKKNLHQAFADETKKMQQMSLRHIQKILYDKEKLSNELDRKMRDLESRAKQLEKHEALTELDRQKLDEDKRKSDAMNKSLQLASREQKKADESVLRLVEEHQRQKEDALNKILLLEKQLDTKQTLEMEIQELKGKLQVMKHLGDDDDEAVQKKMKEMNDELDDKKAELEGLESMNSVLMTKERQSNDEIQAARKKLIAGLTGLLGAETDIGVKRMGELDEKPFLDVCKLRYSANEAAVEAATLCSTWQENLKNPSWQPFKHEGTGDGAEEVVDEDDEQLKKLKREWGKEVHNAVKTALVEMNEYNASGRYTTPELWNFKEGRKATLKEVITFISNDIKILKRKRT

[5] = molecular target: T5, IDP2, yeast two-hybrid fusion (Arabidopsis thaliana) (UniProt F4JH53); experiment: as above
T5 sequence: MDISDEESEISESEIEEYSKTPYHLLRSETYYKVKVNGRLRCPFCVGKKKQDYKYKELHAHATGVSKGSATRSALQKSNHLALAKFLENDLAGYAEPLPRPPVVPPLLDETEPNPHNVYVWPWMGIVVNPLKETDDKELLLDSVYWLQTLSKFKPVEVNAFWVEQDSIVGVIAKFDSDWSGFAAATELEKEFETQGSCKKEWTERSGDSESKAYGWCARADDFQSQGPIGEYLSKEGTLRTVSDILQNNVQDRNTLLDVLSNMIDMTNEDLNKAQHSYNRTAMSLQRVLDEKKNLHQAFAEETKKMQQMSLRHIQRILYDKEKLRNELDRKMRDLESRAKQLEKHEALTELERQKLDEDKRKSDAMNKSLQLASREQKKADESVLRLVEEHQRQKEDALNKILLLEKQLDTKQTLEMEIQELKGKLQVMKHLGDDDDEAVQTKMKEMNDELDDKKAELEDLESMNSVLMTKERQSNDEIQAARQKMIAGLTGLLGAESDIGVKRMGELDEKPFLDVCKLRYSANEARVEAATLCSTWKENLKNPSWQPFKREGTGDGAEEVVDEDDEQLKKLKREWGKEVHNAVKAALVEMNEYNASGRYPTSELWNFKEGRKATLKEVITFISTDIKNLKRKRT

[6] = molecular target: T6, IDN2E600Q, yeast two-hybrid bait (Arabidopsis thaliana) (UniProt Q8VZ79); experiment: as above
T6 sequence: T1 sequence with E600Q

- binding [1]: no binding
Molecule: DMS3 (… IN MERISTEM … 3), endogenous (from UniProt Q94A79 1-420)

- binding [2]: binds
- binding [3]: binds
- binding [4]: no binding
- binding [5]: no binding
B1: IDP1, yeast two-hybrid fusion (protein, UniProt Q9S9P3 1-634)
chain: T4 sequence

- binding [2]: binds
- binding [3]: binds
- binding [5]: no binding
B2: IDP2, yeast two-hybrid fusion (protein, UniProt F4JH53 1-635)
chain: T5 sequence

- binding [2]: binds
- binding [6]: binds
- binding [3]: binds
- binding [4]: binds
- binding [5]: binds
B3: IDN2, yeast two-hybrid fusion (protein, UniProt Q8VZ79 1-647)
chain: T1 sequence
